Data published in patent US20220304309A1, “IRON COMPLEXES AND USES THEREFOR” (priority 2019, published 2022).

How the values were obtained:
X. campestris = settings: preincubation 24 hours with 5 mM ascorbate + 5 μM Cu(II); for CFU: 36 hour treatment; for A600: further 36 hours
Fusarium oxysporum = assay: Growth inhibition of F. oxysporum on agar plates (paper discs); settings: paper discs with various concentrations, in the presence and absence of H2O2
Procedure: The ability of ferrous complexes to inhibit growth of F. oxysporum is tested by culturing the fungus on agar plates and placing small paper discs saturated with various concentrations of ferrous complex on the plate, in the presence and absence of H2O2.

chlorotic orange tree = assay: Reversal of chlorosis in an orange tree after foliar application; settings: single foliar application of approximately 1 liter of 50 μM solution; after three months
Procedure: FIG. 4 is a photograph of a chlorotic orange tree approximately three months after application of one liter of a 50 μM solution of ferrous di-pyruvate. Dried, stunted chlorotic leaves are visible at the left of the photograph; while new growth; characterized by shiny, bright-colored leaves; is visible at the bottom and at the right of the photograph.
Chlorosis was induced in an orange tree by long-term neglect over a period of five years. The chlorotic tree was treated with a single foliar application of approximately 1 liter of a 50 μM solution of ferrous di-pyruvate, sprayed onto the undersides of the leaves.

[1] = addition 5 mM ascorbate + 0.25 mM FDP

Compound	CFU (X. campestris; addition 5 mM ascorbate)	A600 (X. campestris; addition 5 mM ascorbate)	Growth of F. oxysporum (Fusarium oxysporum)	A600 (X. campestris; addition 0.25 mM FDP)	CFU (X. campestris; [1])	A600 (X. campestris; [1])	Reversal of chlorosis (new growth) (chlorotic orange tree)
O=C1O[C@H]([C@@H](O)CO)C([O-])=C1O.[Na+] [ascorbate, sodium ascorbate, reference compound]	5.6 × 10^11	0.519					
O=C([O-])CC(O)(CC(=O)[O-])C(=O)[O-].O=C([O-])CC(O)(CC(=O)[O-])C(=O)[O-].[Fe+2].[Fe+2].[Fe+2] [tri-ferrous di-citrate]			inhibited				
ferrous di-pyruvate			inhibited	0.320	1.05 × 10^7 CFU per ml	0.218	new growth of large, shiny, brightly-colored leaves

Where two headings read alike, the source gives them in different places.
